Measured values reported in the RNAGym collection of RNA variant scans (doi:10.7554/elife.90254).
Read counts are not given, so values of variants with three or more changes are uncertain.

B1: OR4K15 (parent)
chain: GUUAACGGUCAUAGGCCAUGGAAACUAGGAGCACCAUUUCGCUGCCAGUGAAGAAAUGAACAAAGAAAAUCUGGGCCAGGCAGGCAUCAAAAGAAAUAGUCUUGCGCUCAACCAGAAAGUCUGUAAUCAUUUUAAGGGUA

Variants of: B1
Test: self-cleavage, relative activity (ratio to wild type); higher = more cleavage; in vitro, sequencing; the parent is a self-cleaving ribozyme

Row | Variant | self-cleavage
1 | A52G U120C A126C | 0.66
2 | A52G U103C A111G | 0
3 | A52G G58U G75A | 0.04
4 | A54G A62G A98G | 0.32
5 | A52G A64G U122A | 0.57
6 | A52G U100C C101U G137U | 2.59
7 | A52G A59G U103C A116G A140C | 0.15
8 | A54G A56G G79A A111G A126G | 0
9 | A52G A90G G106C U120A | 0.04
10 | A54G A56G U87C A92G | 1.83
11 | A52U C61U A64G A135U U139C | 1.19
12 | A52G A78G A126G A134G G137A | 0.06
13 | A52G G65A U70C U72C A98G C105U | 0.02
14 | A52G U100C C109A | 0.69
15 | A52G A98U A118C | 1.07
16 | A52G A60G C71A | 0.47
17 | A52G A55G A116C | 0.01
18 | A52G A68G U70C U132C | 1.29
19 | A52G A86U A116G U130C U131C | 0.37
20 | A54G A55G U57A | 0.62
21 | A52U A66G U132C | 1.12

Row | Variant | self-cleavage
22 | A52G A55G A117G U122C | 0.66
23 | A52G A82G A117G | 0.7
24 | A52G A89G A95G | 2.72
25 | A52G A111G U120C | 0.01
26 | A52U U124C A126G | 0.69
27 | A52G A66U U103A A125G | 0.23
28 | A52G A95G A96G U102C | 2.05
29 | A52G U57C A90G | 1.04
30 | A52U U102C U120C A134U | 2.16
31 | A52G A63G U72A | 0.26
32 | A52G U57C U87C | 1.69
33 | A52G A55G U57A U87C U127A | 0.86
34 | A54G A60G A86G | 1.55
35 | A52G A60U A95G U108C | 0.01
36 | A52U A91G A126G | 0.92
37 | A52G A94G U97C | 0.88
38 | A54G A62G A86C A95G | 0.67
39 | A52G A91U A118G | 2.13
40 | A54G A55G A134G | 0.94
41 | A52G A59G U102C A114G | 0.21
42 | A52G U57C A62G A116U | 0.2

Row | Variant | self-cleavage
43 | A52G A60U A116G | 1.46
44 | A52G A78G A114G A126U U130C | 0.06
45 | A52U C77A A125G | 0.35
46 | A52G U70A U120C | 0.34
47 | A52G A92U U130A A135G | 1.59
48 | A52G U57G A64G | 1.86
49 | A52G U103C U127C | 1.01
50 | A52G G73A A114U U120C | 0.02
51 | A54G A55G U72C A90G U100G U122C | 0.14
52 | A52G A54G G58U A64C A96G | 0
53 | A52G A63G U103C | 0.41
54 | A54C U102C A114C A129C | 0.01
55 | A52G U72C A111G | 0.03
56 | A52G A94U U102C U122C | 2.07
57 | A52G U70C A126G | 0.85
58 | A52U A56G A78G | 0.24
59 | A52G A60G U70C A78U C81U A82G | 0.04
60 | A52G A62G U131C | 0.91
61 | A52G U103A G123A | 0.91
62 | A54G A59G A78U | 0.16
63 | A54G A59G U103C | 0.79

Row | Variant | self-cleavage
64 | A52G A69G A116G | 0.46
65 | A54G A55G U102C U108C | 0.03
66 | A52G A55G U108C U122G A126U | 0
67 | A52G A55G A78G A118G | 0.15
68 | A52G A56G A62G | 0.66
69 | A52G A114G U124C A140G | 0.08
70 | A52G G53U A118G | 0.95
71 | A52G A82G U130G | 0.2
72 | A52G U72A A91G | 0.1
73 | A52U A118G U122C | 0.55
74 | G53A A82G A92G A95G | 0.97
75 | A52G A78G A118G A125G | 0.01
76 | A52G A129G U133C | 0.61
77 | A52G A62G A66G A86U | 1.71
78 | A52G U70C A89G U108C A117G | 0
79 | A52G A59U A60C | 0
80 | A52G A59U A66U U127C A135G | 0.76
81 | A52G A89U U127C U139A | 0.97
82 | A52G A55U A64G | 0.74
83 | A52G A62G A64C C105U | 0.01
